# According to the supplement of paper PMC8728848:
# The list shows a part of the results.
# B1: Als3-N (Candida albicans) (protein)
# chain: KTITGVFNSFNSLTWSNAATYNYKGPGTPTWNAVLGWSLDGTSASPGDTFTLNMPCVFKFTTSQTSVDLTAHGVKYATCQFQAGEEFMTFSTLTCTVSNTLTPSIKALGTVTLPLAFNVGGTGSSVDLEDSKCFTAGTNTVTFNDGGKKISINVDFERSNVDPKGYLTDSRVIPSLNKVSTLFVAPQCANGYTSGTMGFANTYGDVQIDCSNIHVGITKGLNDWNYPVSSESFSYTKTCSSNGIFITYKNVPAGYRPFVDAYISATDVNSYTLSYANEYTCAGGYWQRAPFTLRWTGYRNSDAGSNGIVIVATTRTVTDSTTAVTTLPFDPNRDKTKTIEILKPIPTTTITTSYVGVTTSYLTKTAPIGETATVIVDIPYHTTTTVTSKWTGTITSTTTHTNPTDSIDTVIVQVP
# Key:
# Test in all cases: glycan array binding signal (z-score within array); higher = stronger binding
# Details in all cases: glycan notation: IUPAC condensed, linker removed
# [1] = biological target: Neu5Ac(a2-3)Gal(b1-4)GlcNAc(b1-3)[Neu5Ac(a2-3)Gal(b1-4)GlcNAc(b1-6)]GalNAc
# Method in brief: (§1)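 The binding signal is a Z-score computed within each array. Data were drawn from 3228 arrays in the Consortium for Functional Glycomics database, restricted to those with a known protein sequence. Scores were averaged over arrays of the same protein sequence at different concentrations or buffers, and over linkers, and negative values can be taken as non-binding.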
# [2] = biological target: Neu5Ac(a2-3)Gal(b1-4)GlcNAc(b1-6)GalNAc
# Method in brief: as §1
# [3] = biological target: Neu5Ac(a2-3)Gal(b1-4)GlcNAc(b1-6)[Gal(b1-3)]GalNAc
# Method in brief: as §1
# [4] = biological target: Neu5Ac(a2-3)Gal(b1-4)GlcNAc(b1-6)[Neu5Ac(a2-3)Gal(b1-3)]GalNAc
# Method in brief: as §1
# [5] = biological target: Neu5Ac(a2-3)Gal(b1-4)GlcNAc6S
# Method in brief: as §1
# [6] = biological target: Neu5Ac(a2-3)Gal(b1-4)[Fuc(a1-3)]GlcNAc
# Method in brief: as §1
# [7] = biological target: Neu5Ac(a2-3)Gal(b1-4)[Fuc(a1-3)]GlcNAc(b1-2)Man
# Method in brief: as §1
# [8] = biological target: Neu5Ac(a2-3)Gal(b1-4)[Fuc(a1-3)]GlcNAc(b1-3)Gal
# Method in brief: as §1
# [9] = biological target: Neu5Ac(a2-3)Gal(b1-4)[Fuc(a1-3)]GlcNAc(b1-3)Gal(b1-4)GlcNAc
# Method in brief: as §1
# [10] = biological target: Neu5Ac(a2-3)Gal(b1-4)[Fuc(a1-3)]GlcNAc(b1-3)Gal(b1-4)[Fuc(a1-3)]GlcNAc(b1-3)Gal(b1-4)[Fuc(a1-3)]GlcNAc
# Method in brief: as §1
# [11] = biological target: Neu5Ac(a2-3)Gal(b1-4)[Fuc(a1-3)]GlcNAc(b1-3)GalNAc
# Method in brief: as §1
# [12] = biological target: Neu5Ac(a2-3)Gal(b1-4)[Fuc(a1-3)]GlcNAc(b1-6)[Gal(b1-3)]GalNAc
# Method in brief: as §1
# [13] = biological target: Neu5Ac(a2-3)Gal(b1-4)[Fuc(a1-3)]GlcNAc(b1-6)[Neu5Ac(a2-3)Gal(b1-3)]GalNAc
# Method in brief: as §1
# [14] = biological target: Neu5Ac(a2-3)Gal(b1-4)[Fuc(a1-3)]GlcNAc6S
# Method in brief: as §1
# [15] = biological target: Neu5Ac(a2-3)Gal6S(b1-4)GlcNAc
# Method in brief: as §1
# [16] = biological target: Neu5Ac(a2-3)Gal6S(b1-4)[Fuc(a1-3)]GlcNAc
# Method in brief: as §1
# Neu5Ac(a2-3)GalNAc = biological target: Neu5Ac(a2-3)GalNAc
# Method in brief: as §1
# [17] = biological target: Neu5Ac(a2-3)GalNAc(b1-4)GlcNAc
# Method in brief: as §1
# [18] = biological target: Neu5Ac(a2-3)[GalNAc(b1-4)]Gal(b1-4)Glc
# Method in brief: as §1
# [19] = biological target: Neu5Ac(a2-3)[GalNAc(b1-4)]Gal(b1-4)GlcNAc
# Method in brief: as §1
# [20] = biological target: Neu5Ac(a2-3)[GalNAc(b1-4)]Gal(b1-4)GlcNAc(b1-3)GalNAc
# Method in brief: as §1
# [21] = biological target: Neu5Ac(a2-3)[Neu5Ac(a2-6)]GalNAc
# Method in brief: as §1
# Neu5Ac(a2-6)Gal = biological target: Neu5Ac(a2-6)Gal
# Method in brief: as §1
# [22] = biological target: Neu5Ac(a2-6)Gal(b1-3)GlcNAc(b1-3)[Gal(b1-4)GlcNAc(b1-6)]Gal(b1-4)Glc
# Method in brief: as §1
# Neu5Ac(a2-6)Gal(b1-4)Glc = biological target: Neu5Ac(a2-6)Gal(b1-4)Glc
# Method in brief: as §1
# [23] = biological target: Neu5Ac(a2-6)Gal(b1-4)GlcNAc
# Method in brief: as §1
# [24] = biological target: Neu5Ac(a2-6)Gal(b1-4)GlcNAc(b1-2)Man
# Method in brief: as §1
# [25] = biological target: Neu5Ac(a2-6)Gal(b1-4)GlcNAc(b1-2)Man(a1-3)Man(b1-4)GlcNAc(b1-4)GlcNAc
# Method in brief: as §1
# [26] = biological target: Neu5Ac(a2-6)Gal(b1-4)GlcNAc(b1-2)Man(a1-3)[Gal(b1-4)GlcNAc(b1-2)Man(a1-6)]Man(b1-4)GlcNAc(b1-4)GlcNAc
# Method in brief: as §1
# [27] = biological target: Neu5Ac(a2-6)Gal(b1-4)GlcNAc(b1-2)Man(a1-3)[GlcNAc(b1-2)Man(a1-6)]Man(b1-4)GlcNAc(b1-4)GlcNAc
# Method in brief: as §1
# [28] = biological target: Neu5Ac(a2-6)Gal(b1-4)GlcNAc(b1-2)Man(a1-3)[GlcNAc(b1-4)][Neu5Ac(a2-6)Gal(b1-4)GlcNAc(b1-2)Man(a1-6)]Man(b1-4)GlcNAc(b1-4)GlcNAc
# Method in brief: as §1
binder,measurement,setting,value
B1,glycan array binding signal (z-score),[1],-0.204
same,glycan array binding signal (z-score),[2],-0.202
same,glycan array binding signal (z-score),[3],-0.233
same,glycan array binding signal (z-score),[4],-0.23
same,glycan array binding signal (z-score),[5],-0.336
same,glycan array binding signal (z-score),[6],-0.182
same,glycan array binding signal (z-score),[7],0.036
same,glycan array binding signal (z-score),[8],0.314
same,glycan array binding signal (z-score),[9],0.029
same,glycan array binding signal (z-score),[10],-0.16
same,glycan array binding signal (z-score),[11],0.382
same,glycan array binding signal (z-score),[12],1.2
same,glycan array binding signal (z-score),[13],-0.003
same,glycan array binding signal (z-score),[14],-0.27
same,glycan array binding signal (z-score),[15],-0.254
same,glycan array binding signal (z-score),[16],-0.22
same,glycan array binding signal (z-score),Neu5Ac(a2-3)GalNAc,-0.215
same,glycan array binding signal (z-score),[17],-0.174
same,glycan array binding signal (z-score),[18],-0.193
same,glycan array binding signal (z-score),[19],2.21
same,glycan array binding signal (z-score),[20],0.502
same,glycan array binding signal (z-score),[21],-0.049
same,glycan array binding signal (z-score),Neu5Ac(a2-6)Gal,-0.171
same,glycan array binding signal (z-score),[22],-0.315
same,glycan array binding signal (z-score),Neu5Ac(a2-6)Gal(b1-4)Glc,-0.187
same,glycan array binding signal (z-score),[23],-0.164
same,glycan array binding signal (z-score),[24],0.001
same,glycan array binding signal (z-score),[25],-0.092
same,glycan array binding signal (z-score),[26],-0.067
same,glycan array binding signal (z-score),[27],-0.327
same,glycan array binding signal (z-score),[28],-0.248
